Measurements published in the supplement of paper PMC11417369.
This is one part of the list.

tested on: PF3D7_0420300 AP2 domain 1 (GST-tagged); test: gcPBM binding intensity (ln(normalized median fluorescence intensity)); higher = stronger DNA binding
Procedure, shortened: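 In this array assay, P. falciparum DNA-binding domains with a GST tag, expressed in E. coli, were applied for 1 h to primer-extended double-stranded 36-bp intergenic genomic probes and negative controls on an Agilent 4 × 180k array. Bound protein was visualised with Alexa488 anti-GST antibody at 488 nm. Binding intensity is the highest Masliner-normalised natural-log median intensity across replicate spots of either probe orientation.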

Row | Sequence | gcPBM binding intensity (ln)
1 | GATGAAATATCATTACGTACACAATAGTTTGTATTT [XGTACX_site5143] | 9.38
2 | TGAAAAAAAAAATGCACACGCATACAGATAATATGT [CACACA_site4526] | 9.59
3 | AATAATAATAGAAACACACACACATTTTTAAGAATA [CACACA_site6692] | 10.1
4 | ATTATTGCAATTTAATGTACATAATACAAATTTGCC [XGTACX_site2729] | 9.3
5 | AATGAATAAATAAACACACACACATATATATATATG [CACACA_site18] | 10.2
6 | TATACGTATACCTATACACACATATATATATATATA [CACACA_site1273] | 9.49
7 | TATATTCAAAAAAATTCATTTCTGATTTTTTTTTTT [CACACA_negctrl_site1085] | 8.78
8 | TATTTCAAATGTTATGTGCACATATTAATCCTACTT [GTGCAC_site9738] | 9.23
9 | AATATCTGAAAATAAAGTACAAACATATTATAAATA [XGTACX_site5738] | 9.42
10 | TACTTATTTGATTGGGTGCATATATATAGTATGTAT [GTGCAC_site9845] | 9.4
11 | AATAATAATTTAAAAAGTACATTCTAATAAACACGT [XGTACX_site1444] | 9.46
12 | AAAAAAAAACACGCATGTACATAAAAATAATCATAC [XGTACX_site1086] | 9.8
13 | TTATTTATGAGGGTGACACACAAAAGAGTGTTAAGA [CACACA_site277] | 9.38
14 | AAATAAAATAAAATAAAATAAAATAAAATAAAATAA [XGTACX_negctrl_site142] | 8.92
15 | CTTGTGCTTTATAGGGTGCACATTTTGTTTTGGTAA [GTGCAC_site9899] | 9.34
16 | TTATTAATTATATATAGTACACATTTCACAGATGGG [XGTACX_site2349] | 9.2
17 | TGAACACATACATACACACACACAAAAAAAAAAAAA [CACACA_site392] | 9.97
18 | AAAATTATGCAGTAGGTGCAATACCCTCGGCTTTTT [GTGCAC_site9556] | 9.24
19 | TTTTTTTTTTTTTTTGGTACACATTTTGGTTAATGG [XGTACX_site5109] | 9.06
20 | TTAATCCTTTTTAAAAGTACACATATATATATATAT [XGTACX_site962] | 9.16
21 | TATATATATATATAATGTACAGAAAAAAAAAAAAAA [XGTACX_site6141] | 9.38
22 | AAATCATGTTGAAGGGGTACAAAATATGTAATGTTG [XGTACX_site6222] | 9.31
23 | ATATTATATATTTGATGTACATTGAATGAGAGAGAA [XGTACX_site3324] | 9.4
24 | CAAATCAAAATTAATTAACACACAATTTTAATATTC [CACACA_site8641] | 9.42
25 | TTCTTTGTAGTATATTAACACACAACTGTTTATAAT [CACACA_site9305] | 9.63
